Some of the results follow. Repeats are few or missing, and single values can be far off.
Key:
Assay in all cases: cell count relative to DMSO control; melanoma cells; higher = more viable cells
Conditions in all cases: library dose: low library concentration; 72 h
MZ2-MEL = test system: MZ2-MEL
MeWo = test system: MeWo
RPMI7951 = test system: RPMI7951
RVH-421 = test system: RVH-421
SkMel28 = test system: SkMel28
SkMel2 = test system: SkMel2
SkMel30 = test system: SkMel30
UACC62 = test system: UACC62
WM115 = test system: WM115
WM1716 = test system: WM1716
WM1745 = test system: WM1745
WM3526 = test system: WM3526
WM3619 = test system: WM3619
WM451Lu = test system: WM451Lu
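Also: cell number obtained by counting DAPI-stained nuclei in high-throughput microscope images with image analysis software, screen run in 1,536-well plates.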

Compound | cell count (MZ2-MEL) | cell count (MeWo) | cell count (RPMI7951) | cell count (RVH-421) | cell count (SkMel28) | cell count (SkMel2) | cell count (SkMel30) | cell count (UACC62) | cell count (WM115) | cell count (WM1716) | cell count (WM1745) | cell count (WM3526) | cell count (WM3619) | cell count (WM451Lu)
COc1cc([C@@H]2c3cc4c(cc3[C@@H](O[C@@H]3O[C@@H]5CO[C@@H](C)O[C@H]5[C@H](O)[C@H]3O)[C@H]3COC(=O)[C@H]23)OCO4)cc(OC)c1O [etoposide] + C=CCNC1=C2C[C@@H](C)C[C@H](OC)[C@H](O)[C@@H](C)/C=C(\C)[C@H](OC(N)=O)[C@@H](OC)/C=C\C=C(/C)C(=O)NC(=CC1=O)C2=O [Tanespimycin] (first compound 0.02 µM, partner dose 0.002 µM) | 92.9% | 88.6% | 93% | 101% | 101% | 92.2% | 87.6% | 93.7% | 82.9% | 95.8% | 92.5% | 87.4% | 86.4% | 113%
C[C@]1(O)C[C@@H](c2nc(-c3ccc4ccc(-c5ccccc5)nc4c3)c3c(N)nccn32)C1 + CN(c1ncccc1CNc1nc(Nc2ccc3c(c2)CC(=O)N3)ncc1C(F)(F)F)S(C)(=O)=O [PF562271] (first compound 0.4 µM, partner dose 0.08 µM) | 71.7% | 86.4% | 85.7% | 95.1% | 88.3% | 76% | 74.1% | 90.6% | 69.7% | 67.5% | 58.6% | 65.3% | 95.6% | 84.7%
COc1cc([C@@H]2c3cc4c(cc3[C@@H](O[C@@H]3O[C@@H]5CO[C@@H](C)O[C@H]5[C@H](O)[C@H]3O)[C@H]3COC(=O)[C@H]23)OCO4)cc(OC)c1O [etoposide] + C=C(c1ccc(C(=O)O)cc1)c1cc2c(cc1C)C(C)(C)CCC2(C)C [Bexarotene] (first compound 0.02 µM, partner dose 2 µM) | 96.3% | 83.1% | 87.2% | 88.4% | 69.6% | 85.9% | 99.8% | 69.7% | 88.5% | 72.9% | 93.3% | 86.3% | 87.9% | 94.5%
Cn1cnc2c(F)c(Nc3ccc(Br)cc3Cl)c(C(=O)NOCCO)cc21 [selumetinib] + CC(=O)O[C@@]12CO[C@@H]1C[C@H](O)[C@@]1(C)C(=O)[C@H](O)C3=C(C)[C@@H](OC(=O)[C@H](O)[C@@H](NC(=O)OC(C)(C)C)c4ccccc4)C[C@@](O)([C@@H](OC(=O)c4ccccc4)[C@H]21)C3(C)C [Docetaxel] (first compound 0.015 µM, partner dose 0.0001 µM) | 56.7% | 56.5% | 52.1% | 87% | 37.2% | 44.9% | 44.2% | 39.9% | 64.6% | 67.6% | 65.4% | 29.8% | 52.8% | 67.9%
COc1cc([C@@H]2c3cc4c(cc3[C@@H](O[C@@H]3O[C@@H]5CO[C@@H](C)O[C@H]5[C@H](O)[C@H]3O)[C@H]3COC(=O)[C@H]23)OCO4)cc(OC)c1O [etoposide] + Cn1sc(=O)n(Cc2ccccc2)c1=O [TDZD-8] (first compound 0.02 µM, partner dose 0.4 µM) | 90.1% | 93.7% | 97.7% | 95.5% | 88.9% | 87.9% | 89.8% | 85.6% | 83.6% | 86.7% | 98.2% | 103% | 89.2% | 81.6%
COc1cc([C@@H]2c3cc4c(cc3[C@@H](O[C@@H]3O[C@@H]5CO[C@@H](C)O[C@H]5[C@H](O)[C@H]3O)[C@H]3COC(=O)[C@H]23)OCO4)cc(OC)c1O [etoposide] + C[C@@H](N)c1ccc(C(=O)Nc2ccnc3[nH]ccc23)cc1 [RKI983] (first compound 0.02 µM, partner dose 0.4 µM) | 78.8% | 86.7% | 76.7% | 58.9% | 64.9% | 94% | 90.4% | 77.4% | 98.5% | 65% | 87.8% | 114% | 106% | 102%
Cn1cnc2c(F)c(Nc3ccc(Br)cc3Cl)c(C(=O)NOCCO)cc21 [selumetinib] + Cn1c(=O)n(-c2ccc(C(C)(C)C#N)cc2)c2c3cc(-c4cnc5ccccc5c4)ccc3ncc21 [NVP-BEZ235] (first compound 0.015 µM, partner dose 0.004 µM) | 84.8% | 81.2% | 131% | 66.9% | 67.8% | 63.8% | 61.1% | 56.4% | 87.5% | 103% | 82.8% | 77.2% | 69.7% | 95.1%
COc1cc([C@@H]2c3cc4c(cc3[C@@H](O[C@@H]3O[C@@H]5CO[C@@H](C)O[C@H]5[C@H](O)[C@H]3O)[C@H]3COC(=O)[C@H]23)OCO4)cc(OC)c1O [etoposide] + C#Cc1cccc(Nc2ncnc3cc(OCCOC)c(OCCOC)cc23)c1 [erlotinib] (first compound 0.02 µM, partner dose 0.8 µM) | 81.8% | 88.1% | 89.6% | 88.1% | 79.2% | 1.34% | 73.5% | 68.2% | 75.9% | 64.4% | 91.3% | 97.5% | 82.5% | 94.9%
